B1: Peptide A: 161 amino acid CD109-based peptide, SEQ ID NO: 3, bacterially expressed; contains monomeric and dimeric forms; described in U.S. Pat. No. 7,173,002 (protein)
chain: TMENVVHELELYNTGYYLGMFMNSFAVFQECGLWVLTDANLTKDYIDGVYDNAEYAERFMEENEGHIVDIHDFSLGSSPHVRKHFPETWIWLDTNMGSRIYQEFEVTVPDSITSWVATGFVISEDLGLGLTTTPVELQAFQPFFIFLNLPYSVIRGEEFAL
B2: peptide A monomer: monomeric form of peptide A (protein)
chain: B1 chain
B3: peptide A dimer: dimeric form of peptide A (protein)
chain: B1 chain

Key:
[1] = Size-exclusion chromatography on Superdex Peptide 10/300GL column; format: physicochemical; conditions: peptide dissolved in PBS
Description: Approximately 200 μg of each peptide X (40 amino acids), X-1 (28 amino acids), peptide A (161 amino acids), P11 (11 amino acids), P16 (16 amino acids), P21 (21 amino acids, P16-2 (16 amino acids, scrambled sequence control), X-3 (16 amino acids) and X-4 (11 amino acids) were dissolved in phosphate-buffered saline (PBS) and loaded onto a Superdex Peptide 10/300GL column. The column was eluted with PBS at a flow rate of 0.6 mL/min and eluents were analyzed for peptide content by measuring relative absorbance at a wavelength of 215 nm. (FIGS. 3A and 3B) The data is plotted with relative absorbance (Y-axis) against elution volume (X-axis). […]
FIG. 4 illustrates the standard curve used for size-exclusion chromatography of standard peptides using the Superdex Peptide 10/300 GL column (results provided in FIG. 3). […] The resulting chromatogram (absorbance at 215 nm (in mAU, left Y axis) and conductivity (in mS/cm, right Y axis, in function of volume of elution (in mL)) indicates the elution profiles of the above peptides with high MW peptides eluting in earlier fractions and lower MW peptides eluting in later fractions as expected. The molecular weights of peptides were plotted against elution volume generating a standard curve (not shown). […]

[2] = system: TGF-β-induced migration of squamous cell carcinoma (A431) cells; assay: Scratch (wound closure) migration assay, A431 cells; format: cell-based; conditions: 10 nM peptide, 100 pM TGF-b1, 24 hrs (FIG. 42)
Description: FIG. 10A and FIG. 10B illustrate that peptides B, E and X-1 inhibit TGF-β-induced cellular migration of A431 cells in vitro. Results are shown prior to treatment (0 hr, top panels) and after treatment (24 hr, bottom panels) for each of the peptides used. (See FIG. 2 and Table 1 for the amino acid sequence identity of the peptides).
A431 cells were grown to 80-90% confluence and serum-starved overnight. The next day, cells were scratched with a plastic pipette tip (time 0 hour) and then left untreated or treated for 24 hours with 100 pM TGF-β1 alone or in the presence of P16 as indicated. (FIG. 27A) Digital images were captured at 0 h and 24 h using an EVOS XL Core microscope. (FIG. 27B) Micrographs were subsequently quantitated to determine the percentage of the wound area that had closed following 24 hours in the presence or absence of P16, as indicated.
Cells were scratched with a pipette tip and treated without or with 100 pM TGF-b1 alone or in the presence of 10 nM Peptide A or Peptide A1 (C31S mutant). Pictures were taken at 0 and 24 hrs. Peptide A but not Peptide A1 inhibits TGF-b-induced migration in A431 cells. Peptide A contains monomeric and dimeric forms whereas Peptide A1 contains a C31S mutation to prevent intermolecular disulfide bond formation so that it forms monomers only. […]

[3] = system: TGF-β-induced epithelial-mesenchymal transition (EMT) response in squamous cell carcinoma (A431) cells; assay: Immunoblot of EMT markers in A431 cells; format: cell-based; conditions: 10 nM peptide, 100 pM TGF-b, 24 hrs (FIG. 33)
Description: (FIG. 26A) Immunoblot analysis was carried out using cell lysates of A431 cells following incubation with TGF-β, P16, or scrambled control (P16.2) as indicated to determine expression of proteins involved in the EMT response. (FIG. 26B) Densitometry analysis was subsequently performed using the developed immunoblot to illustrate the relative expression of each protein as a function as P16 concentration as indicated.
A431 cancer cells treated with 10 nM of P16.2 (negative peptide control), P12, P16 or PA in the absence or presence of 100 pM TGF-b, followed by 24 hrs of incubation. Cells lysates were analyzed by Western blot for the expression of Fibronectin (mesenchymal marker), Snail and Twist (EMT markers). Actin expression was used as loading control.

[4] = system: TGF-b-induced phosphorylation of Smad2 in squamous cell carcinoma (A431) cells; assay: Western blot for phospho-Smad2 in A431 cells; format: cell-based; conditions: 10 nM peptide, 100 pM TGF-b, 45 min at 4 C (FIG. 32)
Description: A431 cancer cells treated with 10 nM of P16.2 (negative peptide control), P16 or PA in the absence or presence of 100 pM TGF-b, followed by 45 min of incubation at 4 C. Cells lysates were analyzed by Western blot using an anti-phosphoSmad2 antibody. Actin expression was used as loading control.

[5] = system: TGF-b induced cellular invasion of squamous cell carcinoma (A431) cells; assay: Matrigel invasion assay, A431 cells; format: cell-based; conditions: 10 nM peptide, 100 pM TGF-b, 24 hrs (FIG. 38)
Description: A431 cancer cells (8000 cells) were seeded on a BioCoat™ Matrigel® Invasion Chamber and treated with 10 nM of P16.2 (negative peptide control), P16 or PA in the absence or presence of 100 pM TGF-b, followed by 24 hrs of incubation. Invasive cells (in the lower chambers) were stained by crystal violet dye, photographed and counted. Representative photos (A) and statistical plots of invasion (B) are shown. The data are shown as mean±SD of the number of invasive cells for three independent experiments. **P<0.01 and ***P<0.001 as compared with controls. […] Squamous cell carcinoma (epidermoid A431 and head and neck FaDu) cells were stimulated with 100 pM of TGF-b1, then treated with 10 nM of peptide 16.2, P16, PA or CD109 for 24 hours. Cells were analysed by Flow cytometry and CD133 positive cell population, which represent cancer stem cell population, were quantified.

[6] = system: TGF-β1-induced Smad3-driven (CAGA12-lux) transcriptional activity; assay: Luciferase reporter assay in HEK293-(CAGA)12 cells; format: cell-based; conditions: 10 nM or 5 nM peptide, 100 pM TGF-β1, 18 hours (FIG. 5)
[7] = system: TGF-β1-induced Smad3-driven (CAGA12-lux) transcriptional activity; assay: Luciferase reporter assay in HEK293-(CAGA)12 cells; format: cell-based; conditions: dimeric or monomeric peptide A, 100 pM TGF-b overnight (FIG. 41)
Description: FIGS. 5A and 5B illustrate that some small molecular weight CD109-based peptides (Peptide A, P28, P21 and […]) inhibit TGF-β1-induced Smad3-driven transcriptional activity. […] Cell lysates were analyzed for luciferase activity and data are expressed as mean±standard deviation of relative light units (RLU). […] Under the conditions tested, peptide A, P28, P21 and P16 inhibited TGF-β1-induced transcriptional (CAGA12-lux) activity.
FIG. 6 illustrates that the small molecular weight CD109-based peptide P16 (but not P16-2, P11 or X-4) inhibit TGF-β1-induced Smad3-driven transcriptional activity. […] Cell lysates were analyzed for luciferase activity and data are expressed as mean±standard deviation of luciferase activity. […]
FIG. 8 illustrates that DMSO treatment enhances the TGF-β inhibitory activity of Peptide X but not P21 or P16. […] Cell lysates were analyzed for luciferase activity and data are expressed as mean±standard deviation of luciferase activity. […]
FIG. 25 is a graph showing the ability of CD109-based peptides to inhibit TGF-β-induced, Smad3-driven transcriptional activity. […] Cell lysates were analyzed for luciferase activity and data are expressed as mean±standard deviation of luciferase activity. […]

Molecule	Aggregation? [1]	inhibition of TGF-b1 induced migration in A431 cells [2]	inhibition of TGF-b induced EMT response (Fibronectin, Snail, Twist) [3]	inhibition of TGF-b-induced phosphorylation of Smad2 [4]	inhibition of TGF-b induced cellular invasion [5]	inhibition of TGF-β1-induced CAGA12-lux activity [6]	effect on TGF-b-dependent Smad3 (CAGA12-lux) transcriptional activity [7]
B1	Not aggregated	inhibits	inhibit	inhibit	significantly inhibit	inhibited	
B2							potentiates
B3							inhibits

Reference: patent US11787850B2, “Peptidic TGF-beta antagonists” (priority 2015, dated 2023)
